The values that follow come from the antibiotic and cytotoxicity screens of Wong et al. (2023).

The other results are listed elsewhere or left out.

In one assay the test system is HSkMC. Briefly: cytotoxicity call (relative viability < 0.9). The following applies: 10 µM.
In another assay the test system is HepG2. Briefly: cytotoxicity call (relative viability < 0.9). As to conditions: 10 µM.
In another assay the test system is S. aureus RN4220. Briefly: growth inhibition call (relative growth <= 0.2). The following applies: 50 µM.

Take `C=CCCCCCCCCC(=O)O`: the cytotoxicity call in the assay on HSkMC and in the assay with HepG2 was “inactive” each time. Moreover, in the assay on S. aureus RN4220, the growth inhibition call was “inactive”.

On to `Cc1cn([C@H]2C=C[C@@H](CO)O2)c(=O)[nH]c1=O`, for which the cytotoxicity call in the assay with HSkMC and in the assay on HepG2 was “inactive” each time. For the same compound, in the assay with S. aureus RN4220, the growth inhibition call was “inactive”.

On to `C[C@@H]1CN([C@H](C)CO)C(=O)Cc2cc(NC(=O)Cc3ccccc3)ccc2O[C@@H]1CN(C)Cc1ccc(Cl)c(Cl)c1`, for which the cytotoxicity call in the assay with HSkMC and in the assay on HepG2 was “active” each time. In the assay with S. aureus RN4220, the growth inhibition call was “inactive”.

With `C=C(CC[C@@H](C)[C@H]1CC[C@@]2(C)C3=C(C[C@H](O)[C@]12C)[C@@]1(C)CC[C@@H](OC(=O)CC(=O)O)C(C)(C)[C@@H]1CC3)[C@@H](C)C(=O)O`, the cytotoxicity call in the assay on HSkMC and in the assay with HepG2 was “inactive” each time. Also, the growth inhibition call in the assay on S. aureus RN4220 is “inactive”.

In the case of `Cl.NCCS`, the cytotoxicity call in the assay with HSkMC and with HepG2 was “inactive” throughout. The growth inhibition call in the assay with S. aureus RN4220 is “inactive”.

Consider `C[C@@H]1CN([C@@H](C)CO)C(=O)Cc2cc(NC(=O)CCN3CCOCC3)ccc2O[C@H]1CN(C)S(=O)(=O)c1cccs1`, for which the cytotoxicity call with HSkMC and with HepG2 was “inactive” in each case. The growth inhibition call in the assay with S. aureus RN4220 was “inactive”.

For `COc1ccc(NC(=O)N2C[C@@H](O)COC[C@H]3O[C@H](CC(=O)NCc4ccccc4OC)CC[C@@H]32)cc1`, the cytotoxicity call with HSkMC and in the assay on HepG2 was “inactive” in each case. In addition, in the assay on S. aureus RN4220, the growth inhibition call is “inactive”.

For `C[C@@H]1CN([C@@H](C)CO)S(=O)(=O)c2ccc(-c3ccc(C(=O)N(C)C)cc3)cc2O[C@@H]1CN(C)C(=O)C1CC1`, the cytotoxicity call in the assay with HSkMC and in the assay on HepG2 was “inactive” each time. In the assay on S. aureus RN4220, the growth inhibition call is “inactive”.

`CO[C@@H]1CN(C)C(=O)c2cc(NC(=O)Nc3cccc(F)c3)ccc2OC[C@@H](C)N(C(=O)Nc2c(C)noc2C)C[C@H]1C`: the cytotoxicity call in the assay on HSkMC and with HepG2 was “inactive” throughout. Also, the growth inhibition call in the assay with S. aureus RN4220 is “inactive”.

For `Cc1noc(C)c1NC(=O)Nc1ccc2c(c1)C(=O)N([C@@H](C)CO)C[C@H](C)[C@H](CN(C)Cc1ccc(C(=O)O)cc1)OCCCC[C@H](C)O2`, the cytotoxicity call in the assay with HSkMC and in the assay with HepG2 was “inactive” each time. In addition, the growth inhibition call with S. aureus RN4220 was “inactive”.

On to `COc1ccc(NC(=O)Nc2cccc3c2O[C@@H](CN(C)Cc2ccc(-c4ccccc4)cc2)[C@@H](C)CN([C@H](C)CO)C3=O)cc1`, for which the cytotoxicity call in the assay on HSkMC and in the assay on HepG2 was “inactive” each time. Also, the growth inhibition call with S. aureus RN4220 is “inactive”.

With `CCN1C(=O)[C@H]2[C@H](O)CS[C@H]2C1=O`, the cytotoxicity call in the assay with HSkMC and in the assay with HepG2 was “inactive” each time. Further, in the assay on S. aureus RN4220, the growth inhibition call was “inactive”.

Turning to `CCC(=O)Nc1ccc2c(c1)OC[C@H](C)N(C(=O)CN1CCOCC1)C[C@@H](C)[C@H](OC)CN(C)C2=O`, the cytotoxicity call in the assay with HSkMC and with HepG2 was “inactive” throughout. Besides, the growth inhibition call in the assay with S. aureus RN4220 is “inactive”.

As to `C[C@H](CO)N1C[C@H](C)[C@H](CN(C)C(=O)CCC(F)(F)F)OCCCC[C@H](C)Oc2ccc(NS(=O)(=O)c3ccc(Cl)cc3)cc2C1=O`, the cytotoxicity call in the assay with HSkMC and with HepG2 was “inactive” in each case. Further, in the assay with S. aureus RN4220, the growth inhibition call is “inactive”.

For `C[C@@H]1CN([C@@H](C)CO)C(=O)c2cccc(NC(=O)C3CC3)c2O[C@H]1CN(C)Cc1ccc(-c2ccccc2)cc1`, the cytotoxicity call in the assay with HSkMC and with HepG2 was “inactive” throughout. Moreover, the growth inhibition call with S. aureus RN4220 was “inactive”.

With `Cc1noc(C)c1S(=O)(=O)Nc1ccc2c(c1)C(=O)N([C@@H](C)CO)C[C@@H](C)[C@@H](CN(C)Cc1ccncc1)O2`, the cytotoxicity call in the assay with HSkMC and in the assay on HepG2 was “inactive” each time. Also, the growth inhibition call with S. aureus RN4220 was “inactive”.

For the compound `COCC(=O)Nc1ccc2c(c1)CC(=O)N2`, the cytotoxicity call in the assay with HSkMC and in the assay with HepG2 was “inactive” in each case. For the same compound, the growth inhibition call with S. aureus RN4220 was “inactive”.

Consider `C[C@@H]1CCCCO[C@@H](CN(C)CC2CC2)[C@H](C)CN([C@@H](C)CO)C(=O)c2cc(NS(=O)(=O)c3ccc(Cl)cc3)ccc2O1`, for which the cytotoxicity call in the assay on HSkMC and in the assay with HepG2 was “inactive” in each case. The growth inhibition call with S. aureus RN4220 was “inactive”.

As to `C[C@@H]1CN([C@H](C)CO)C(=O)c2cccc(NS(=O)(=O)c3ccccc3)c2O[C@@H]1CN(C)S(=O)(=O)c1cn(C)cn1`, the cytotoxicity call with HSkMC and with HepG2 was “inactive” each time. Also, the growth inhibition call in the assay on S. aureus RN4220 was “inactive”.

As for `O=C(C[C@H]1CC[C@H]2[C@@H](COC[C@@H](O)CN2S(=O)(=O)c2ccc(F)cc2)O1)NCc1ccncn1`, the cytotoxicity call in the assay on HSkMC and with HepG2 was “inactive” in each case. The growth inhibition call in the assay with S. aureus RN4220 was “inactive”.

In the case of `C[C@H]1CN([C@@H](C)CO)C(=O)c2cc(N(C)C)ccc2O[C@@H]1CN(C)S(=O)(=O)c1ccc(Cl)cc1`, the cytotoxicity call with HSkMC and in the assay on HepG2 was “inactive” each time. Also, the growth inhibition call in the assay with S. aureus RN4220 was “inactive”.

Regarding `CC(C)CC#Cc1cnc2c(c1)C(=O)N([C@H](C)CO)C[C@H](C)[C@H](CN(C)C(=O)CN1CCOCC1)O2`, the cytotoxicity call with HSkMC and in the assay on HepG2 was “inactive” throughout. In the assay on S. aureus RN4220, the growth inhibition call is “inactive”.

Regarding `COc1ccc(N)nc1`, the cytotoxicity call with HSkMC and with HepG2 was “inactive” in each case. In the assay with S. aureus RN4220, the growth inhibition call was “inactive”.

`C[C@H](CO)N1C[C@H](C)[C@@H](CN(C)S(=O)(=O)c2ccccc2)Oc2ccc(NC(=O)Cn3cnnn3)cc2C1=O`: the cytotoxicity call in the assay on HSkMC and with HepG2 was “inactive” throughout. Further, in the assay with S. aureus RN4220, the growth inhibition call is “inactive”.

In the case of `C[C@H](CO)N1C[C@H](C)[C@@H](CN(C)S(C)(=O)=O)Oc2ccc(NC(=O)Cn3cnnn3)cc2CC1=O`, the cytotoxicity call in the assay on HSkMC and with HepG2 was “inactive” in each case. The growth inhibition call in the assay with S. aureus RN4220 is “inactive”.

Take `C[C@@H]1CN([C@H](C)CO)C(=O)c2cc(-c3cccnc3)cnc2O[C@H]1CN(C)C(=O)Nc1ccc2c(c1)OCO2`: the cytotoxicity call in the assay on HSkMC and in the assay with HepG2 was “inactive” throughout. In addition, the growth inhibition call with S. aureus RN4220 is “inactive”.

Regarding `Cc1noc(C)c1NC(=O)Nc1ccc2c(c1)CC(=O)N([C@@H](C)CO)C[C@H](C)[C@H](CN(C)C(=O)Nc1ccc(C(F)(F)F)cc1)O2`, the cytotoxicity call in the assay with HSkMC and in the assay on HepG2 was “inactive” in each case. Further, the growth inhibition call in the assay on S. aureus RN4220 is “inactive”.

On to `Cc1noc(C)c1NC(=O)N(C)C[C@H]1Oc2ccc(NC(=O)Nc3cccc4ccccc34)cc2CC(=O)N([C@@H](C)CO)C[C@H]1C`, for which the cytotoxicity call with HSkMC and in the assay with HepG2 was “inactive” each time. In addition, the growth inhibition call in the assay on S. aureus RN4220 was “inactive”.

On to `Cc1noc(C)c1NC(=O)Nc1ccc2c(c1)C(=O)N([C@@H](C)CO)C[C@H](C)[C@@H](CN(C)C(=O)Nc1ccc(C(F)(F)F)cc1)O2`, for which the cytotoxicity call with HSkMC and with HepG2 was “inactive” each time. Moreover, in the assay with S. aureus RN4220, the growth inhibition call is “inactive”.

With `NCCS(=O)(=O)O`, the cytotoxicity call with HSkMC and in the assay with HepG2 was “inactive” throughout. In the assay with S. aureus RN4220, the growth inhibition call was “inactive”.

`NCCC(=O)NCCc1cnc[nH]1`: the cytotoxicity call with HSkMC and with HepG2 was “inactive” in each case. The growth inhibition call with S. aureus RN4220 is “inactive”.

Consider `COc1ccc(S(=O)(=O)N2CCCN(S(=O)(=O)c3ccc(OC)c(OC)c3)CC2)cc1OC`, for which the cytotoxicity call in the assay on HSkMC and in the assay with HepG2 was “inactive” in each case. Besides, the growth inhibition call in the assay on S. aureus RN4220 was “inactive”.

Take `Cc1ccc(S(=O)(=O)N(C)C[C@H]2Oc3cc(Br)ccc3S(=O)(=O)N([C@H](C)CO)C[C@@H]2C)cc1`: the cytotoxicity call in the assay on HSkMC and in the assay with HepG2 was “inactive” each time. In addition, the growth inhibition call with S. aureus RN4220 is “inactive”.

With `C=C(CO)C(=O)O[C@@H]1[C@H]2C(=C)C(=O)O[C@@H]2[C@H]2O[C@]2(C)CC/C=C(/C(=O)OC)[C@H]1OC(C)=O`, the cytotoxicity call with HSkMC and with HepG2 was “active” in each case. Further, the growth inhibition call in the assay on S. aureus RN4220 is “inactive”.

As to `CON=C(C(=O)NC1C(=O)N2C(C(=O)O)=C(C[N+]3(C)CCCC3)CSC12)c1csc(N)n1.[Cl-]` (centres undefined), the cytotoxicity call with HSkMC and in the assay on HepG2 was “inactive” in each case. Further, in the assay with S. aureus RN4220, the growth inhibition call is “active”.

In the case of `Cl.O=C(O)c1cn(-c2ccc(F)cc2)c2cc(N3CCNCC3)c(F)cc2c1=O`, the cytotoxicity call in the assay with HSkMC and with HepG2 was “inactive” throughout. Besides, in the assay with S. aureus RN4220, the growth inhibition call was “active”.

Consider `Cc1cn[nH]c1`, for which the cytotoxicity call with HSkMC and in the assay with HepG2 was “inactive” each time. For the same compound, the growth inhibition call in the assay with S. aureus RN4220 was “inactive”.

For `C[C@@H]1CCCCO[C@@H](CN(C)C(=O)CCC(F)(F)F)[C@@H](C)CN([C@@H](C)CO)C(=O)c2cc(NC(=O)Nc3ccc4c(c3)OCO4)ccc2O1`, the cytotoxicity call in the assay with HSkMC and in the assay on HepG2 was “inactive” each time. Also, in the assay on S. aureus RN4220, the growth inhibition call is “inactive”.

On to `O=C1NC(=O)C2(CCCC2)N1`, for which the cytotoxicity call with HSkMC and with HepG2 was “inactive” throughout. Moreover, the growth inhibition call in the assay with S. aureus RN4220 is “inactive”.

Regarding `C[C@@H]1CN([C@@H](C)CO)C(=O)Cc2cc(NC(=O)CCN3CCOCC3)ccc2O[C@@H]1CN(C)CC1CC1`, the cytotoxicity call in the assay on HSkMC (human skeletal muscle cells) and in the assay with HepG2 was “inactive” in each case. Further, in the assay on S. aureus RN4220, the growth inhibition call is “inactive”.

`Cc1noc(C)c1S(=O)(=O)Nc1ccc2c(c1)CC(=O)N([C@@H](C)CO)C[C@H](C)[C@@H](CN(C)S(=O)(=O)c1cn(C)cn1)O2`: the cytotoxicity call in the assay with HSkMC and in the assay on HepG2 was “inactive” each time. For the same compound, in the assay with S. aureus RN4220, the growth inhibition call is “inactive”.

Turning to `COc1ccc(S(=O)(=O)Nc2ccc3c(c2)C(=O)N([C@@H](C)CO)C[C@@H](C)[C@@H](CN(C)C(=O)NC2CCCCC2)OCCCC[C@@H](C)O3)cc1`, the cytotoxicity call in the assay with HSkMC and in the assay with HepG2 was “inactive” throughout. Besides, the growth inhibition call with S. aureus RN4220 was “inactive”.

As for `C[C@@H]1CN([C@@H](C)CO)C(=O)c2cc(Br)cnc2O[C@@H]1CN(C)C(=O)CN1CCOCC1`, the cytotoxicity call in the assay with HSkMC and in the assay on HepG2 was “inactive” each time. In the assay with S. aureus RN4220, the growth inhibition call was “inactive”.
